The campaign covered roughly 310,000 compounds. About 14,000 (4.5%) showed an effect of 50% or more. The effect is printed as a negative number. The list shows a part of the results.
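Further: peak tail current of the secondary pulse compared with the same well before compound.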

human ether-à-go-go-related gene (hERG) potassium channel, sequence (Q12809 whole entry, looked up): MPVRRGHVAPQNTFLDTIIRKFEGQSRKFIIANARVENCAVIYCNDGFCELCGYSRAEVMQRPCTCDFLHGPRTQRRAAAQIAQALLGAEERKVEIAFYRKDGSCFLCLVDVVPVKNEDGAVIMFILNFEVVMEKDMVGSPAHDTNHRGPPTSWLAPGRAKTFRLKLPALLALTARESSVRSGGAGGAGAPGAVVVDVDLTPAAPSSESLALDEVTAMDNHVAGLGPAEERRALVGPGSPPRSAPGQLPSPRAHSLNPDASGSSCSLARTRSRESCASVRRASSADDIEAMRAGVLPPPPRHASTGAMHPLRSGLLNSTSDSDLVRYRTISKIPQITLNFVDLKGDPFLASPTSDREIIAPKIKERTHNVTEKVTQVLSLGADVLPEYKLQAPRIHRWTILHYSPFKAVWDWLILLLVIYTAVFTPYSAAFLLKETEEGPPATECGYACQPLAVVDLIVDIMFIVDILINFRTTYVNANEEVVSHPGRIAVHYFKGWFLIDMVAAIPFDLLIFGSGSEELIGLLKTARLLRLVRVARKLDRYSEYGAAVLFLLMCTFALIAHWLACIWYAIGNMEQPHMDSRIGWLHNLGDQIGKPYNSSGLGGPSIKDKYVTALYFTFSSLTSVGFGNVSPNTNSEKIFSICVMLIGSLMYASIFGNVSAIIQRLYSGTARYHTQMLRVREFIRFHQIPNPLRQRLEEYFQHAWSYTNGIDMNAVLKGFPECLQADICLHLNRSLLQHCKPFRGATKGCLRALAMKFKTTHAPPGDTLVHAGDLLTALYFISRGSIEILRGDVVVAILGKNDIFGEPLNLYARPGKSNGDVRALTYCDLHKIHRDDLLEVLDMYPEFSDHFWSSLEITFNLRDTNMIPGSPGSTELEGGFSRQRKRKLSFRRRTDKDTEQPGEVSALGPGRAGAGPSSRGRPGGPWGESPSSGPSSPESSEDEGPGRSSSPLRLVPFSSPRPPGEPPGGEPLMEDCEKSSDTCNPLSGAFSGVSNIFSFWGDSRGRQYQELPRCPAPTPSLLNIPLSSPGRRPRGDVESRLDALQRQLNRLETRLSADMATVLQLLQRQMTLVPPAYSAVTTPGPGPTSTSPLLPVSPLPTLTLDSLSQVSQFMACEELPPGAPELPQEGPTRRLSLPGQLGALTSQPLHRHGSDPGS

The assay has as its target human ether-à-go-go-related gene (hERG) potassium channel (human, UniProt Q12809). The experiment in a line: primary screen, population patch clamp on CHO cells stably expressing hERG.
As for `O=[N+]([O-])c1ccccc1CCc1cnc(Cl)s1`, the “hERG current change (%, negative = inhibition) at 10uM” value came out at 5.76%.

For `O=C(NCCN1CCN(C(=O)c2c(F)cccc2F)CC1)C(=O)Nc1ccc(Cl)cc1`, the “hERG current change (%, negative = inhibition) at 10uM” value is reported as -32.5%.

For the compound `COc1cccc(-c2nc(CS(=O)(=O)CC(=O)N3CCOCC3)c(C)o2)c1`, the “hERG current change (%, negative = inhibition) at 10uM” value came out at 10.2%.

As for `O=C(Cc1ccc(F)cc1)Nc1cccc(S(=O)(=O)N2CCCC2)c1`, the “hERG current change (%, negative = inhibition) at 10uM” value is -33.7%.

Regarding `COc1ccccc1/C=C(\C)C(=O)c1c(C)cc(C)[nH]c1=O`, the “hERG current change (%, negative = inhibition) at 10uM” value is 3.35%.

Regarding `Cc1nc(OCc2ccccc2)c2ccccc2n1`, the “hERG current change (%, negative = inhibition) at 10uM” value was -2.5%.

For `O=C(NCCn1c(C(F)(F)F)nc2ccccc21)[C@H]1CCCN1c1nc(CN2CCCCC2)cs1`, the “hERG current change (%, negative = inhibition) at 10uM” value is reported as 6.03%.

In the case of `CCOC(=O)N1CCN(c2c(NCCc3ccccc3)c(=O)c2=O)CC1`, the “hERG current change (%, negative = inhibition) at 10uM” value is 5.85%.

In the case of `O=C(Nn1cnc2ccccc2c1=O)c1ccccc1`, the “hERG current change (%, negative = inhibition) at 10uM” value was 12.7%.

Regarding `Nc1nc(NCc2ccccc2Cl)n(-c2ccccc2)n1`, the “hERG current change (%, negative = inhibition) at 10uM” value worked out at 30.9%.

For the compound `O=C(Nc1ccccc1Oc1cccnc1)C1CCCN(Cc2ccccc2O)C1` (centres unmarked), the “hERG current change (%, negative = inhibition) at 10uM” value is listed as -57.2%.

As to `O=C(Nc1ccccc1)Nc1ccc(C(F)(F)F)cn1`, the “hERG current change (%, negative = inhibition) at 10uM” value was 7.46%.

Regarding `COc1ccc2cc(C(=O)C3CCCN(C(=O)c4cc(=O)n(C)c(=O)n4C)C3)ccc2c1` (centres unmarked), the “hERG current change (%, negative = inhibition) at 10uM” value is given as -38.4%.

`COc1ccc(C(=O)/C=C/N2CCCCC2)cc1OC`: the “hERG current change (%, negative = inhibition) at 10uM” value is on record as 9.67%.

Consider `CSc1ccc(-c2nc(CSCC(=O)N3CCOCC3)c(C)o2)cc1`, for which the “hERG current change (%, negative = inhibition) at 10uM” value is on record as -25.2%.

Take `Cc1cccn2c(=O)c3cc(C(=O)N(C)C)n(C)c3nc12`: the “hERG current change (%, negative = inhibition) at 10uM” value was 2.7%.

Turning to `CC(C)N(C(=O)CSc1nnc(NC(=O)Cc2cccs2)s1)C(C)C`, the “hERG current change (%, negative = inhibition) at 10uM” value is listed as 9.08%.

`O=C(CSc1ccc(-c2ccccn2)nn1)NCc1ccccc1`: the “hERG current change (%, negative = inhibition) at 10uM” value came out at 2.53%.

With `O=C(c1ccc(-n2cccc2)cc1)N1CCCCC1`, the “hERG current change (%, negative = inhibition) at 10uM” value was found to be 5.72%.

For `CSc1nnc(NC(=O)c2nc(S(=O)(=O)Cc3cccc(C)c3)ncc2Cl)s1`, the “hERG current change (%, negative = inhibition) at 10uM” value is listed as -6.39%.

On to `Cc1cccc(NC(=O)c2ccc(S(=O)(=O)NCc3cccnc3)cc2)c1`, for which the “hERG current change (%, negative = inhibition) at 10uM” value is on record as -2.34%.

On to `CCC(c1nnnn1Cc1ccco1)N(CCc1ccccc1)Cc1cc2cc(C)ccc2[nH]c1=O` (centres unmarked), for which the “hERG current change (%, negative = inhibition) at 10uM” value is reported as 0.239%.

With `CC1(C)C2CCC1(CS(=O)(=O)NCc1ccc(S(N)(=O)=O)cc1)C(=O)C2` (centres unmarked), the “hERG current change (%, negative = inhibition) at 10uM” value is on record as 7.51%.

Take `CCOC(=O)CC(NC(=O)Cc1cccs1)c1ccccc1Cl` (centres unmarked): the “hERG current change (%, negative = inhibition) at 10uM” value was determined as 5.29%.

With `CCS(=O)(=O)N1CCN(c2cnn(-c3ccccc3)c(=O)c2Cl)CC1`, the “hERG current change (%, negative = inhibition) at 10uM” value is on record as -29%.

As to `COc1cccc(-n2c(CNC(=O)OC(C)(C)C)n[nH]c2=S)c1`, the “hERG current change (%, negative = inhibition) at 10uM” value was 13.7%.

For the compound `O=C(O)C1C2C=CC(C2)C1C(=O)NCc1ccccn1` (centres unmarked), the “hERG current change (%, negative = inhibition) at 10uM” value is -3.63%.

`Cc1ccnc(SCc2nc3ccccc3s2)n1`: the “hERG current change (%, negative = inhibition) at 10uM” value amounted to 4.27%.

As to `c1cncc(-c2nc3ccccn3c2Nc2ccc3c(c2)OCCO3)c1`, the “hERG current change (%, negative = inhibition) at 10uM” value was -11.4%.

As to `O=C(Nc1ccc(C(F)(F)F)cn1)Nc1cccs1`, the “hERG current change (%, negative = inhibition) at 10uM” value is 6.66%.

For the compound `Cc1cc(C)c2c(=O)c3c(oc2c1)C(=O)N(CCO)C3c1cccc(O)c1` (centres unmarked), the “hERG current change (%, negative = inhibition) at 10uM” value was found to be 4.2%.

For the compound `Cc1cc(=O)oc2cc(NC(=O)C(C)Oc3ccc(F)cc3)ccc12` (centres unmarked), the “hERG current change (%, negative = inhibition) at 10uM” value is -28.1%.

For `CCOCCN(C(=O)c1ccccc1Cl)c1cccc(C)c1C`, the “hERG current change (%, negative = inhibition) at 10uM” value amounted to 9.34%.

On to `COc1ccc(C2=NOC(C(=O)N3CCN(c4ccccc4OC)CC3)C2)cc1` (centres unmarked), for which the “hERG current change (%, negative = inhibition) at 10uM” value is 11.4%.

As to `CC1CC(=O)Nc2ccccc2N1S(=O)(=O)c1ccc(C#N)cc1` (centres unmarked), the “hERG current change (%, negative = inhibition) at 10uM” value turned out to be 11.4%.

Turning to `CC1Oc2ccccc2N(CC(=O)Nc2ccc3c(c2)OCO3)C1=O` (centres unmarked), the “hERG current change (%, negative = inhibition) at 10uM” value is given as 3.74%.

For the compound `S=C(NCCN1CCOCC1)NC1CCCCC1`, the “hERG current change (%, negative = inhibition) at 10uM” value is listed as 22.5%.

`O=S(=O)(c1ccc(Cl)cc1)n1ccc2cccnc21`: the “hERG current change (%, negative = inhibition) at 10uM” value is -4.45%.

For the compound `O=C(c1cnc2n(c1=O)CCS2)N1CCc2ccccc21`, the “hERG current change (%, negative = inhibition) at 10uM” value was 9.35%.

In the case of `O=C(NCC(=O)N(CC1CCCO1)C(C(=O)NC1CCCCC1)c1ccc(F)cc1)c1ccco1` (centres unmarked), the “hERG current change (%, negative = inhibition) at 10uM” value came out at 2.68%.

Turning to `Cc1cccc2cc3c(NC(=O)CC(C)C)nn(C)c3nc12`, the “hERG current change (%, negative = inhibition) at 10uM” value is 10.2%.

On to `COc1ccc(N2CCN(Cc3nc(N)nc(Nc4ccc(C)c(Cl)c4)n3)CC2)cc1`, for which the “hERG current change (%, negative = inhibition) at 10uM” value is reported as -63.1%.

Consider `O=C(CCCn1c(=S)[nH]c2cc3c(cc2c1=O)OCO3)NCCc1ccccc1Cl`, for which the “hERG current change (%, negative = inhibition) at 10uM” value came to 5.71%.

On to `Cc1cccc(OCC(=O)NNC(=O)c2cc(S(=O)(=O)N(C)C)ccc2N2CCCC2)c1`, for which the “hERG current change (%, negative = inhibition) at 10uM” value is on record as -37.7%.

The values above are taken from paper PMC4336329 (PLoS ONE, 2015).
